In all, about 5,400 compounds were measured (“IFI”: median about 2, highest 2% from about 22 on). Some of the results follow.
Assay: NOVARTIS: Inhibition Frequency Index (IFI) - the number of HTS assays where a compound showed > 50% inhibition/induction, expressed as a percentage of the number of assays in which the compound was tested.
Format: functional

| SMILES | IFI |
| --- | --- |
| O=C(NC(=C(Cl)Cl)[P+](c1ccccc1)(c1ccccc1)c1ccccc1)c1ccc(F)cc1 | 27.3% |
| CC(C)(C)CC(C)(C)Nc1c(-c2ccccc2OC(=O)C(c2ccccc2)c2ccccc2)nc2ccccn12 | 4.76% |
| COc1cc(OC)cc(C(=O)N(CCCC(C)Nc2cc(OC)cc3cccnc23)Cc2ccc(Cl)cc2)c1 (stereo not given) | 3.67% |
| CC(=O)c1ccc(OCc2cc(C(=O)N3CCCCC3c3cccnc3)no2)cc1 (stereo not given) | 0% |
| Cc1cc(Nc2cc3ccccc3cc2O)n2ncnc2n1 | 4.17% |
| Cc1ccc2cc3c(N)c4c(C)ccc(C)c4nc3nc2c1 | 7.21% |
| COc1cc(NC(C)CCCN(Cc2ccc(OC)c(OC)c2)C(=O)c2ccccc2C)c2ncccc2c1 (stereo not given) | 0.926% |
| Cc1nnc2sc(SCc3cccc([N+](=O)[O-])c3)nn2c1=O | 0% |
| COc1ccc(C2=C(Nc3ccc4oc5ccccc5c4c3)c3ccccc3C2=O)cc1 | 0% |
| CC(C)(C)c1ccc(-c2c[n+](-c3ccccc3)c3n2CCCS3)cc1 | 23.1% |
| C(=C1\C(c2ccccc2)=Nc2ccccc21)/c1c(-c2ccccc2)[nH]c2ccccc12 | 21.4% |
| CCn1c(C=CN(C(C)=O)c2ccccc2)[n+](CC)c2cc(Cl)ccc21 | 0% |
| O=c1nc(/C=C/c2ccc(Cl)cc2)oc2ccccc12 | 2.38% |
| O=C(Nc1ccc(C(F)(F)F)cc1)c1cc(S(=O)(=O)NC2CCCCCC2)ccc1F | 0% |
| COc1cc(NC(C)CCCN(Cc2ccc(Cl)cc2)C(=O)C(C)C)c2ncccc2c1 (stereo not given) | 5.61% |
| N/C(=N\C(=O)c1nc(Cl)c(N)nc1N)NCc1ccccc1 | 2.22% |
| Cc1cc(N2CCCC2)nc2ccc(NC(=S)NCCCN3CCc4ccccc4C3)cc12 | 11.8% |
| CCCn1c(=O)c2[nH]c(C3CCCC3)nc2n(CCC)c1=O | 1.41% |
| CCOc1ccc2nc3cc(NCc4ccco4)ccc3c(N)c2c1 | 7.46% |
| CC1=C(C(=O)OCCC(C)C)C(c2ccccc2)C(C(=O)OCCC(C)C)=C(C)N1 | 0% |
| CCOC(=O)N1CCC(NC(=O)c2c(C)nn(-c3cccc(C)c3)c2-n2cccc2)CC1 | 0% |
| O=C(NNc1nc(-c2cc3ccccc3oc2=O)cs1)c1ccccc1 | 0% |

| SMILES | IFI |
| --- | --- |
| CCOC(=O)C1=C(C)NC2=C(C(=O)CC(c3ccc(OC)cc3)C2)C1c1cccc(F)c1 (stereo not given) | 4.65% |
| Cc1ccc(C=Cc2ccc(N(C)C)cc2)[n+](C)c1 | 15.4% |
| COc1ccccc1CNC(=O)C1c2ccccc2C(=O)N2CCc3ccccc3C12 (stereo not given) | 0% |
| Oc1ccc2ccccc2c1CNc1nc2ccccc2[nH]1 | 15.4% |
| CC(C)(C)NC(=O)C(c1ccncc1)N(Cc1ccccc1Cl)C(=O)c1ccc(-c2ccccc2)[nH]1 (stereo not given) | 5.41% |
| COC(=O)c1c(-c2ccccc2Cl)csc1N | 0% |
| Nc1nc(Cl)nc2ccccc12 | 0.625% |
| Cc1ccc(-c2nnc(SCCCC(=O)NC(Cc3ccccc3)c3ccccc3)n2-c2cccc(Cl)c2)cc1 (stereo not given) | 4.21% |
| Cc1cccc(N(C)c2nc3ccccc3c3nnc(C)n23)c1 | 0% |
| CCCCn1c(=N)n(CC(O)c2ccc(Br)cc2)c2ccccc21 (stereo not given) | 6.25% |
| CCN(CC)CCNc1nc2cc(OC)c(OC)cc2c2nc(-c3ccccc3)nn12 | 6.82% |
| CCCCCCCSc1nsc(NC(=O)CCC)n1 | 3.66% |
| Cc1c[n+](Cc2ccccc2)ccc1/C=C/c1ccccc1 | 7.14% |
| Nc1ccc(-c2nc3cc(Oc4ccc(Oc5ccc6[nH]c(-c7ccc(N)cc7)nc6c5)cc4)ccc3[nH]2)cc1 | 5.8% |
| CCc1ccc(NC(=O)CSc2nc(C)cc(C)c2C#N)cc1 | 3.7% |
| OCCCCCCCCCCC[n+]1ccccc1 | 1.22% |
| Cc1cc2cc(C3C(C#N)=C(N)Oc4c3ccc3ccccc43)c(Cl)nc2cc1Cl (stereo not given) | 5.1% |
| COc1ccc2c(c1)C(=NN=C(N)N)c1cc(OC)ccc1-2 | 7.69% |
| CCOc1ccc2[nH]c3c(NCCCN4CCOCC4)ncnc3c2c1 | 4.76% |
| c1ccc(-c2cc(N3CCOCC3)nc(-c3ccccn3)n2)nc1 | 15.4% |
| CC(=O)OCN1C(=O)N(COC(C)=O)C2C1N(COC(C)=O)C(=O)N2COC(C)=O (stereo not given) | 1.14% |
| Cc1ccc(C#N)c(SCc2nnc(-c3ccc(Cl)cc3)o2)n1 | 0% |

| SMILES | IFI |
| --- | --- |
| CC(=O)Nn1c(C(C)(C)C)nc2ccccc2c1=O | 0% |
| O=C(Nc1ccccc1C(=O)O)c1cccc(NC(=O)c2ccco2)c1 | 7.69% |
| CCCNC1=C(N(C(C)=O)c2ccc(C)cc2)C(=O)c2ccccc2C1=O | 18.4% |
| COc1ccc(C2Sc3ccccc3N=C3C2=C(O)c2ccccc23)cc1 (stereo not given) | 0% |
| CCOc1ccc2[nH]c(=O)c(CN(CCN3CCCC3)C(=S)Nc3ccc(F)cc3)cc2c1 | 3.36% |
| O=c1c2c([nH]c3ccccc13)CCCC2 | 2.16% |
| Cc1ccc(S(=O)(=O)c2c(COC(=O)c3cccc(C)c3)c(-c3ccccc3)nn2C)cc1 | 3.9% |
| CN(C)CCCNc1ncc(C(=O)NCCc2ccccc2)c(NCC2CCCCC2)n1 | 0.971% |
| CCOC(=O)c1cnc2cc(OCC3CC3)c(OCC3CC3)cc2c1O | 0.862% |
| O=S(=O)(ON=C1CCCc2sc(Cl)cc21)c1ccccc1 | 2.24% |
| O=C(CSc1nc2ccccc2[nH]1)Nc1ccc(Cl)cc1Cl | 0% |
| COc1ccc(N2C(N)=NC(N)=NC23CCCC3)cc1 | 0% |
| O=C1NC(=O)C(Cc2ccc(S(=O)(=O)N3CCN(c4ccccc4)CC3)cc2)S1 (stereo not given) | 1.24% |
| COc1ccc(NC(=O)N(CCCNS(=O)(=O)c2ccc([N+](=O)[O-])cc2)c2ccc(Oc3ccccc3)cc2)cc1 | 0.901% |
| CC[n+]1c(C)n(-c2ccccc2)c2ccc(C3Nc4ccccc4S3)cc21 (stereo not given) | 3.17% |
| CCN(C(=O)Cn1c(=O)oc2ccccc21)c1ccc(F)cc1 | 0% |
| COc1ccc(C(=O)C(CCC(CNC(C)(C)C)C(=O)c2ccc(OC)cc2)CNC(C)(C)C)cc1 (stereo not given) | 7.14% |
| CCOC(=O)C1=C(N)N(c2cccc([N+](=O)[O-])c2)C2=C(C(=O)CC(C)(C)C2)C1c1ccc(Br)cc1 (stereo not given) | 0% |
| CCCCN(CCCC)CC(O)c1cc(Cl)cc2c1-c1ccc(Cl)cc1/C2=C/c1ccc(Cl)cc1 (stereo not given) | 1.45% |
| O=C(NC1CCN(CC(O)CN(Cc2ccccc2)S(=O)(=O)c2ccccc2)C1)c1cccc2ccccc12 (stereo not given) | 2.97% |
| O=C(C1CCN(c2cccc3c2C(=O)N(C2CC2)C3=O)CC1)N1CCC(O)(c2ccc(Cl)cc2)CC1 | 8.82% |
